Residue numbers refer to the chain shown, from its start. The list shows a part of the results.
T1: RBFOX1 RRM (Homo sapiens, UniProt Q9NWB1 109-208)
T1 sequence: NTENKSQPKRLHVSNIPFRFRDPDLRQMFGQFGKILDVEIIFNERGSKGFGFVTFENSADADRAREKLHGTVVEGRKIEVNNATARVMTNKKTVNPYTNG

B1: CAUAACA (DNA:RNA)
RNA: GGGAGACCGGAAUUCAGAUUGUCCCAUAACAUUAAAUCCCGUCGUAGCCACCA
DNA 1: CAATCTGAATTCCGGTCTCCC
DNA 2: TGGTGGCTACGACGGGATT
B2: CCGCAGU (DNA:RNA)
RNA: B1 RNA with A26C, U27G, A28C, C30G, A31U
DNA 1: CAATCTGAATTCCGGTCTCCC
DNA 2: TGGTGGCTACGACGGGATT
B3: AGCUCAU (DNA:RNA)
RNA: GGGAGACCGGAAUUCAGAUUGUCCAGCUCAUUUAAAUCCCGUCGUAGCCACCA
DNA 1: CAATCTGAATTCCGGTCTCCC
DNA 2: TGGTGGCTACGACGGGATT
B4: AACGAUA (DNA:RNA)
RNA: B1 RNA with C25A, U27C, A28G, C30U
DNA 1: CAATCTGAATTCCGGTCTCCC
DNA 2: TGGTGGCTACGACGGGATT
B5: UUGACGG (DNA:RNA)
RNA: B3 RNA with A25U, G26U, C27G, U28A, A30G, U31G
DNA 1: CAATCTGAATTCCGGTCTCCC
DNA 2: TGGTGGCTACGACGGGATT
B6: UAACCCG (DNA:RNA)
RNA: B1 RNA with C25U, U27A, A28C, A29C, A31G
DNA 1: CAATCTGAATTCCGGTCTCCC
DNA 2: TGGTGGCTACGACGGGATT
B7: UUCCUGU (DNA:RNA)
RNA: B3 RNA with A25U, G26U, U28C, C29U, A30G
DNA 1: CAATCTGAATTCCGGTCTCCC
DNA 2: TGGTGGCTACGACGGGATT
B8: GUCUGAG (DNA:RNA)
RNA: B3 RNA with A25G, G26U, C29G, U31G
DNA 1: CAATCTGAATTCCGGTCTCCC
DNA 2: TGGTGGCTACGACGGGATT
B9: GUUUUGG (DNA:RNA)
RNA: B3 RNA with A25G, G26U, C27U, C29U, A30G, U31G
DNA 1: CAATCTGAATTCCGGTCTCCC
DNA 2: TGGTGGCTACGACGGGATT
B10: CCCAGUC (DNA:RNA)
RNA: B1 RNA with A26C, U27C, A29G, C30U, A31C
DNA 1: CAATCTGAATTCCGGTCTCCC
DNA 2: TGGTGGCTACGACGGGATT
B11: UUUACUC (DNA:RNA)
RNA: B1 RNA with C25U, A26U, A29C, C30U, A31C
DNA 1: CAATCTGAATTCCGGTCTCCC
DNA 2: TGGTGGCTACGACGGGATT
B12: UAGGUUG (DNA:RNA)
RNA: B1 RNA with C25U, U27G, A28G, A29U, C30U, A31G
DNA 1: CAATCTGAATTCCGGTCTCCC
DNA 2: TGGTGGCTACGACGGGATT
B13: UAGCCAG (DNA:RNA)
RNA: B3 RNA with A25U, G26A, C27G, U28C, U31G
DNA 1: CAATCTGAATTCCGGTCTCCC
DNA 2: TGGTGGCTACGACGGGATT
B14: CCGGUAC (DNA:RNA)
RNA: B3 RNA with A25C, G26C, C27G, U28G, C29U, U31C
DNA 1: CAATCTGAATTCCGGTCTCCC
DNA 2: TGGTGGCTACGACGGGATT
B15: ACCUGCU (DNA:RNA)
RNA: B3 RNA with G26C, C29G, A30C
DNA 1: CAATCTGAATTCCGGTCTCCC
DNA 2: TGGTGGCTACGACGGGATT
B16: UCCGCGU (DNA:RNA)
RNA: B3 RNA with A25U, G26C, U28G, A30G
DNA 1: CAATCTGAATTCCGGTCTCCC
DNA 2: TGGTGGCTACGACGGGATT
B17: CAAUUGG (DNA:RNA)
RNA: B1 RNA with U27A, A28U, A29U, C30G, A31G
DNA 1: CAATCTGAATTCCGGTCTCCC
DNA 2: TGGTGGCTACGACGGGATT
B18: AUUAGAC (DNA:RNA)
RNA: B3 RNA with G26U, C27U, U28A, C29G, U31C
DNA 1: CAATCTGAATTCCGGTCTCCC
DNA 2: TGGTGGCTACGACGGGATT
B19: CAGUUGA (DNA:RNA)
RNA: B1 RNA with U27G, A28U, A29U, C30G
DNA 1: CAATCTGAATTCCGGTCTCCC
DNA 2: TGGTGGCTACGACGGGATT
B20: CUGAUAA (DNA:RNA)
RNA: B1 RNA with A26U, U27G, A29U, C30A
DNA 1: CAATCTGAATTCCGGTCTCCC
DNA 2: TGGTGGCTACGACGGGATT
B21: GUAACUA (DNA:RNA)
RNA: B1 RNA with C25G, A26U, U27A, A29C, C30U
DNA 1: CAATCTGAATTCCGGTCTCCC
DNA 2: TGGTGGCTACGACGGGATT
B22: UCGAUGG (DNA:RNA)
RNA: B1 RNA with C25U, A26C, U27G, A29U, C30G, A31G
DNA 1: CAATCTGAATTCCGGTCTCCC
DNA 2: TGGTGGCTACGACGGGATT
B23: UUUUCAG (DNA:RNA)
RNA: B3 RNA with A25U, G26U, C27U, U31G
DNA 1: CAATCTGAATTCCGGTCTCCC
DNA 2: TGGTGGCTACGACGGGATT
B24: CGAAACA (DNA:RNA)
RNA: B1 RNA with A26G, U27A
DNA 1: CAATCTGAATTCCGGTCTCCC
DNA 2: TGGTGGCTACGACGGGATT
B25: UCGGGAU (DNA:RNA)
RNA: B3 RNA with A25U, G26C, C27G, U28G, C29G
DNA 1: CAATCTGAATTCCGGTCTCCC
DNA 2: TGGTGGCTACGACGGGATT
B26: UAAAUAU (DNA:RNA)
RNA: B3 RNA with A25U, G26A, C27A, U28A, C29U
DNA 1: CAATCTGAATTCCGGTCTCCC
DNA 2: TGGTGGCTACGACGGGATT
B27: CCUAUUC (DNA:RNA)
RNA: B1 RNA with A26C, A29U, C30U, A31C
DNA 1: CAATCTGAATTCCGGTCTCCC
DNA 2: TGGTGGCTACGACGGGATT
B28: CACCUGG (DNA:RNA)
RNA: B1 RNA with U27C, A28C, A29U, C30G, A31G
DNA 1: CAATCTGAATTCCGGTCTCCC
DNA 2: TGGTGGCTACGACGGGATT
B29: CAGCUUU (DNA:RNA)
RNA: B1 RNA with U27G, A28C, A29U, C30U, A31U
DNA 1: CAATCTGAATTCCGGTCTCCC
DNA 2: TGGTGGCTACGACGGGATT
B30: CCUCCGA (DNA:RNA)
RNA: B1 RNA with A26C, A28C, A29C, C30G
DNA 1: CAATCTGAATTCCGGTCTCCC
DNA 2: TGGTGGCTACGACGGGATT
B31: UGGUUGC (DNA:RNA)
RNA: B3 RNA with A25U, C27G, C29U, A30G, U31C
DNA 1: CAATCTGAATTCCGGTCTCCC
DNA 2: TGGTGGCTACGACGGGATT

Biological target: T1, RBFOX1 RRM
Test: EMSA; HiTS-Eq, 1 nM pool, 10 min; buffer printed only for the single-RNA assays: 10 mM Tris pH 7.5, 150 mM NaCl, 3.4 mM EDTA, 0.001% NP-40, 30 C
Conditions: tags: His6 N-terminal (pET28a); label: 5' 32P
Method in brief: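 Relative association constants, normalised to the cognate motif, were derived by comparing read counts of each RNA species with those of the control reaction. The RNA sequenced was the free fraction, separated by 8% native PAGE after a 10 min equilibration in 50 µL of 1 nM 5′-radiolabelled RNA (7 randomized nucleotides) with increasing concentrations of purified wild-type or mutant RbFox RRM.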

Binder | binding signal
B1 | 0.00191 KA relative to UGCAUGU
B2 | 0.00716 KA relative to UGCAUGU
B3 | 0.00371 KA relative to UGCAUGU
B4 | 0.00289 KA relative to UGCAUGU
B5 | 0.0155 KA relative to UGCAUGU
B6 | 0.0031 KA relative to UGCAUGU
B7 | 0.0109 KA relative to UGCAUGU
B8 | 0.0256 KA relative to UGCAUGU
B9 | 0.0186 KA relative to UGCAUGU
B10 | 0.00823 KA relative to UGCAUGU
B11 | 0.00457 KA relative to UGCAUGU
B12 | 0.0284 KA relative to UGCAUGU
B13 | 0.0132 KA relative to UGCAUGU
B14 | 0.0115 KA relative to UGCAUGU
B15 | 0.00975 KA relative to UGCAUGU
B16 | 0.0079 KA relative to UGCAUGU

Binder | binding signal
B17 | 0.00654 KA relative to UGCAUGU
B18 | 0.00734 KA relative to UGCAUGU
B19 | 0.0146 KA relative to UGCAUGU
B20 | 0.00614 KA relative to UGCAUGU
B21 | 0.0032 KA relative to UGCAUGU
B22 | 0.019 KA relative to UGCAUGU
B23 | 0.0135 KA relative to UGCAUGU
B24 | 0.00327 KA relative to UGCAUGU
B25 | 0.0283 KA relative to UGCAUGU
B26 | 0.00578 KA relative to UGCAUGU
B27 | 0.00347 KA relative to UGCAUGU
B28 | 0.00866 KA relative to UGCAUGU
B29 | 0.0065 KA relative to UGCAUGU
B30 | 0.00601 KA relative to UGCAUGU
B31 | 0.0455 KA relative to UGCAUGU
